Out of some 310,000 compounds screened, about 2,200 (0.71%) showed an effect of 50% or more. Effects have a minus sign here. The list shows a part of the results.
molecular target: human ether-à-go-go-related gene (hERG) potassium channel (human, UniProt Q12809); assay: primary screen, population patch clamp on CHO cells stably expressing hERG
Sequence (Q12809 whole entry, looked up): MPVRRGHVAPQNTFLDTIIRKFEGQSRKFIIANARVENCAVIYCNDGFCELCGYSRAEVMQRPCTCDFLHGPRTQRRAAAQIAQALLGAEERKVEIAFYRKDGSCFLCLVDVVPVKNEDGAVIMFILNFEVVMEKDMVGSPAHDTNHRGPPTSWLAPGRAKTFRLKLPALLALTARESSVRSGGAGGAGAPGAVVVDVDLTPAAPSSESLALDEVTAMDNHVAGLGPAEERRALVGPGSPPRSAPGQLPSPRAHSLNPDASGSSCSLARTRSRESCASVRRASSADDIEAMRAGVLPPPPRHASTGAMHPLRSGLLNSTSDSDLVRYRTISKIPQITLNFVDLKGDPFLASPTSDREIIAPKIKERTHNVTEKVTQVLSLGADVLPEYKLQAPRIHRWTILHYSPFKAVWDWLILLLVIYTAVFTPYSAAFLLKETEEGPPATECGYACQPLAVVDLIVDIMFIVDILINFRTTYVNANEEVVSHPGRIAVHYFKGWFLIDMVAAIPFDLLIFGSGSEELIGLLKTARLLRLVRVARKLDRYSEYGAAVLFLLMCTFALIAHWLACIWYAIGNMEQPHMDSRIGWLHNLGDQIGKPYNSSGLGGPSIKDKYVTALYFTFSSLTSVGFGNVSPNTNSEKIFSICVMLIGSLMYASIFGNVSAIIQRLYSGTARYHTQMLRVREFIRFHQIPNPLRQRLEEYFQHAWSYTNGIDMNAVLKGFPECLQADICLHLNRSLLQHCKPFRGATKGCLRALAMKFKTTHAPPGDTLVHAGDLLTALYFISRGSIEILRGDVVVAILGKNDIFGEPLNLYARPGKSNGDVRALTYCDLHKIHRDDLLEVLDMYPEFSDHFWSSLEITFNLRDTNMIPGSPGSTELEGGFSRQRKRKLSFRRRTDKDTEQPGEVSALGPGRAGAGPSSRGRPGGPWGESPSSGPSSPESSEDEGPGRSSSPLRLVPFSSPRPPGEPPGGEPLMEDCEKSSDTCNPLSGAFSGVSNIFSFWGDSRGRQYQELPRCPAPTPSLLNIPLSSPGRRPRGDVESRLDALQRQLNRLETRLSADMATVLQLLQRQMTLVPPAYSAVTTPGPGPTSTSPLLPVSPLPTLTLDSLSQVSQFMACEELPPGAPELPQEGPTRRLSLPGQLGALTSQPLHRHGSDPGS

| SMILES | hERG current change (%, negative = inhibition) at 1uM |
| --- | --- |
| O=C(O)CNC(=O)c1ccc(OC(F)F)cc1 | 13.3% |
| CC(=O)NCCC(=O)Nc1nc2ccc(Oc3ccccc3)cc2s1 | 2.19% |
| O=[N+]([O-])c1cccc(-c2cc(C(F)(F)F)n3nc(-c4ccccc4)cc3n2)c1 | 10% |
| Cc1cc(C)c(C(=O)Nc2ccc(S(=O)(=O)Nc3onc(C)c3C)cc2)c(C)c1 | 4.08% |
| CCCn1c(C(O)c2ccc(C)cc2)nc2ccccc21 (centres unmarked) | 17.8% |
| Cc1ccc(Oc2c(F)c(F)nc(N3CCCC3)c2F)cc1 | 4.44% |
| CC(C)OC(=O)N(C)c1ccc(C(O)(C(F)(F)F)C(F)(F)F)cc1 | -3.18% |
| CCOC(=O)/C(C#N)=C1\Nc2ccccc2N=C1N(CC(C)C)CC(C)C | 10.6% |
| CCN(CC)CCNC(=O)CCCNC(=O)Cn1cnc2sc(C)c(C)c2c1=O | 4.5% |
| O=C(Nc1ccccc1C(F)(F)F)c1cc2ccccc2o1 | 15.8% |
| CC(=O)Nc1ccc(S(=O)(=O)Nc2nccc(C)n2)cc1 | 1.61% |
| CCOc1ccc(NC(=O)Cc2cccc3ccccc23)c([N+](=O)[O-])c1 | 10.9% |
| CC(C)NC(=O)CCc1nc2cccnc2n1-c1ccccc1 | 4.54% |
| C=CCNC(=S)Nc1cccc(N)c1 | -7.19% |
| CC(=O)Nc1ccc(NC(=O)CCCSc2nc3ccccc3[nH]2)cc1 | 2.66% |
| Cc1ccc(Oc2nc(CN3CCOCC3)nc3sc4c(c23)CCC(C)C4)cc1 (centres unmarked) | 6.62% |
| COc1ccc(/C=N/c2oc(-c3ccccc3)cc2C#N)cc1OC | 5.99% |
| Cc1cccc(NS(=O)(=O)c2c(C(=O)N3CCOCC3)c(C)n(C)c2C)c1C | 18.8% |
| C=CCn1cccc(C(=O)Nc2ccc(OCC)cc2)c1=O | 4.1% |
| CCOC(=O)/C=C(\C)N1N=C(c2ccccc2)CC1c1ccccc1 (centres unmarked) | 7.11% |
| CC(C)c1ccc(N=Cc2c(O)n(C3CC3)c(=S)[nH]c2=O)cc1 | 8.16% |
| COc1ccc(/C=N\NC(=O)c2ccccc2)cc1COc1ccccc1 | 16.7% |

| SMILES | hERG current change (%, negative = inhibition) at 1uM |
| --- | --- |
| CCc1noc(C)c1C(=O)Nc1nnc(C(CC)CC)s1 | -3.95% |
| O=C(Cc1cc(=O)[nH][nH]1)N/N=C/c1c(Cl)cccc1Cl | 12% |
| COc1ccc(N=C(N)SCc2ccccn2)cc1.Cl | 0.799% |
| Cn1c(-n2c(CCCN3C(=O)c4ccccc4C3=O)nc3ccccc3c2=O)nc2ccccc21 | 7.43% |
| N#C/C(=C(/O)c1ccc(C(=O)c2ccccc2)cc1)c1nc2ccccc2[nH]1 | 9.44% |
| COc1ccc(OC)c(C(=O)CSc2nccc(-c3ccc(Br)cc3)n2)c1 | 11.9% |
| CN(C)CCCn1c2c(c(SCC(=O)Nc3nccs3)nc1=O)CCC2 | -0.215% |
| Cc1cc(C(=O)OCC(=O)Nc2ccc(F)c(F)c2)c(C)o1 | 13.3% |
| CC12CCC(C(=O)Nc3ccccc3Cl)([C@H](Br)C1=O)C2(C)C (some centres unmarked) | 15.4% |
| COc1ccc(CNC(=O)CN(C(=O)CCC(=O)Nc2nccs2)c2cccc(C)c2)cc1 | 21.6% |
| O=C(O)C1CCN(S(=O)(=O)N2CCOCC2)CC1 | 8.3% |
| CCCN(CCC)CCCNC(=O)c1cn(CCOC)c(=O)c2c1c1ccccc1n2C | 0.949% |
| O=C(O)C(Cc1ccccc1)N1C(=O)C2CCCCC2C1=O (centres unmarked) | 11.1% |
| COc1ccc(-c2cnc(SCCNC(=O)c3ccc4c(c3)OCO4)[nH]2)cc1 | 2.78% |
| COc1ccc(C(=O)c2c[nH]c(C(=O)N=CN(C)C)c2)cc1 | 8.77% |
| CCn1nc(NC(=O)c2cccs2)c2cc3ccccc3nc21 | 14.8% |
| O=C(O)c1cccc(S(=O)(=O)Nc2ccccc2N2CCOCC2)c1 | -0.987% |
| Cc1ccc(Oc2c(C=O)c3ccccc3n2C)cc1 | 4.83% |
| CC(C)CNc1ncnc2c1cnn2Cc1ccccc1Cl | 9.47% |
| C=C(C)C(=O)N1CC2(CC(c3cccc(NC(=O)COc4ccc(Cl)cc4)c3)=NO2)C[C@@H]1C(N)=O (some centres unmarked) | 1.81% |
| Cc1ccc(Oc2cc(NC(=O)CCCn3nc([N+](=O)[O-])c(Cl)c3C)cc([N+](=O)[O-])c2)cc1 | 11.1% |
| C=CCNC(=O)Cc1c(OC)ccc2cc(Br)ccc12 | 11.7% |
